# Among all 390,000 compounds or so, about 17,000 (4.4%) were called active. Inconclusive results, whose numbers are uncertain, are shown with a selection of clear calls. The call rests on the fitted dose curve; in most records, active means well fitted inhibition curve with a large enough effect; inconclusive means small, poorly fitted or top-dose-only effect; inactive means no such curve, though single readings can be large or run the other way. Where the call is inconclusive, the potency comes from a doubtful curve fit.
# Molecular target: Lysine-specific demethylase 4A (Homo sapiens) (UniProt O75164)
# Assay: qHTS Assay for Inhibitors of JMJD2A-Tudor Domain; further: nearly all actives have a fitted effect of over 50% in size
# Details: AlphaScreen JMJD2A-Tudor / H3K4me3 peptide binding; series mostly up to 114 µM
# Potency means the concentration at half of the fitted maximal effect; tags describe the fitted curve by direction and shape.
# Chain of UniProt O75164 (O75164 whole entry, looked up, the tested form may be a part): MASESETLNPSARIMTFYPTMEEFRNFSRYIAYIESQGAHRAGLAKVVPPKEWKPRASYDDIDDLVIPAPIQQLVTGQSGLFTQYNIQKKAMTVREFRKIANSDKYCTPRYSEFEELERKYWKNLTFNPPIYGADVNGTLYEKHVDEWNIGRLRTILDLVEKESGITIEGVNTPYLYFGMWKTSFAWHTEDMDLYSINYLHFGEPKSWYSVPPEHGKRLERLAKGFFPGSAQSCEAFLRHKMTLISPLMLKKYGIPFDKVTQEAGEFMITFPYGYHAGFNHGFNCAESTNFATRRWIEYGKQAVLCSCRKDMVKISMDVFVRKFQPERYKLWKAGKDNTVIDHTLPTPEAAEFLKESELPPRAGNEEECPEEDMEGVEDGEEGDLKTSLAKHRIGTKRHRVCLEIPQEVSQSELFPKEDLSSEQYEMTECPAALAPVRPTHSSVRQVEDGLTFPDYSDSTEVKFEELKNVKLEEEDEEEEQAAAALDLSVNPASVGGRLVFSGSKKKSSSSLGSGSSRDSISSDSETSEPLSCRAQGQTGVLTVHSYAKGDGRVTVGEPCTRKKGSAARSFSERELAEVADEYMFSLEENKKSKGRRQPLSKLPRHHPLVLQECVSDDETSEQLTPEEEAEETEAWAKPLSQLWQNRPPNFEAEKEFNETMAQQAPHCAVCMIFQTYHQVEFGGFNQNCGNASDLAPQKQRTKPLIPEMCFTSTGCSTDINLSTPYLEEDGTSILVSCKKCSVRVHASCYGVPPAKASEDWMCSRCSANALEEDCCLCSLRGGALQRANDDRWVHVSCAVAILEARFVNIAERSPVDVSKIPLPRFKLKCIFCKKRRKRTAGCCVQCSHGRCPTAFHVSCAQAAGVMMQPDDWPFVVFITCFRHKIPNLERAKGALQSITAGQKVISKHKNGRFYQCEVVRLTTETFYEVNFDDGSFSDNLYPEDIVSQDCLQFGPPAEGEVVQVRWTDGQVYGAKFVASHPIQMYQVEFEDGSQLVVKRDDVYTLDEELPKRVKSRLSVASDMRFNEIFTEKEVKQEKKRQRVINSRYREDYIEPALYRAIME
row,Compound,Potency
1,COc1cccc(OC2=NS(=O)(=O)c3ccccc32)c1,"inconclusive: 126 µM [inhibitor, single point]"
2,CC12CCC(C(=O)N(CCCCN3CCN(Cc4ccccc4)CC3)C1=O)C2(C)C (stereo not drawn),"inconclusive: 17.8 µM [inhibitor, full curve, poor fit]"
3,O=C(CN1CCCc2ccccc21)NCc1ccccc1Cl,inactive
4,COc1cc(/C=C2/CCC/C(=C\c3cc(O)c(OC)c(Cl)c3)C2=O)cc(Cl)c1O,"inconclusive: 15.8 µM [inhibitor, full curve]"
5,COc1cccc(Cn2nnc3c(=O)[nH]c(C4CCN(C(=O)c5ccccc5Cl)CC4)nc32)c1,"inconclusive: 14.1 µM [inhibitor, full curve]"
6,CCN(CC)c1ccc(C2NC(=O)NC(C)=C2C(=O)Nc2ccccc2)cc1 (stereo not drawn),"inconclusive: 89.1 µM [inhibitor, single point]"
7,CNS(=O)(=O)c1cccc(C(=O)OCC(=O)Nc2ccc(OC)cc2[N+](=O)[O-])c1,"inconclusive: 56.2 µM [inhibitor, partial curve]"
8,O=C(CSc1ccc(-c2ccco2)nn1)Nc1ccc(F)cc1F,inactive
9,O=C(Nc1ccc(F)c(Cl)c1)N1CC=C(c2c[nH]c3ccccc23)CC1,"inconclusive: 28.2 µM [inhibitor, partial curve]"
10,O=C(NCCc1ccccc1Cl)c1sc2ncccc2c1-n1cccc1,"inconclusive: 50.1 µM [inhibitor, partial curve]"
11,COc1cc(/C=N/NC2=NS(=O)(=O)c3ccccc32)cc(OC)c1OC,"inconclusive: 31.6 µM [inhibitor, single point]"
12,COc1ccc(C)cc1NC1=C(Cl)C(=O)N(C2CCCCC2)C1=O,"inconclusive: 50.1 µM [inhibitor, partial curve]"
13,Cc1ccc(C(=O)NCC(=O)OCC(=O)c2cc(C)n(Cc3ccco3)c2C)cc1,"inconclusive: 44.7 µM [inhibitor, partial curve]"
14,Cc1nc2nncn2c(NCc2ccc(Cl)cc2)c1C,inactive
15,CCc1ccc(NC(=O)C2=CC(c3ccc(OC)cc3)=NS(=O)(=O)N2C)cc1,"inconclusive: 44.7 µM [inhibitor, partial curve]"
16,Cc1ccc(S(=O)(=O)Nc2ccc3c(c2)CC(=O)N([C@H](C)CO)C[C@@H](C)[C@H](CN(C)Cc2ccc(-c4ccccc4)cc2)O3)cc1,"inconclusive: 15.8 µM [inhibitor, full curve]"
17,Cc1ccc(CN(C(=O)COc2ccc(Cl)c(C)c2)C2CCS(=O)(=O)C2)o1 (stereo not drawn),"inconclusive: 56.2 µM [inhibitor, partial curve]"
18,Cc1nc2nc(SCC(=O)O)nn2c(C)c1Cc1c(F)cccc1Cl,inactive
19,Cn1c(S(=O)(=O)c2ccc([N+](=O)[O-])cc2)nc(Br)c1Br,"inconclusive: 79.4 µM [inhibitor, partial curve]"
20,c1ccc(CCCN2CCN(c3ccccn3)CC2)cc1,active: 25.1 µM
21,CCOc1cc(/C=C2\COc3ccccc3C2=O)cc(Br)c1OCC(=O)N(C)C,"inconclusive: 28.2 µM [inhibitor, partial curve, poor fit]"
22,COc1ccccc1/C=C/C1=NC(=C\C=C/c2ccccc2)/C(=O)O1,active: 56.2 µM
23,COc1cc(/C=C2\CCc3c2nc2ccccc2c3C(=O)O)cc(OC)c1OC,active: 89.1 µM

row,Compound,Potency
1,CCOc1ccc(NC(=O)CC2C(=O)N(c3ccccc3)C(=O)N2C2CCCCC2)cc1 (stereo not drawn),inactive
2,COc1ccc(/C=C2\SC(=S)N(Cc3cccnc3)C2=O)cc1C,"inconclusive: 22.4 µM [inhibitor, partial curve]"
3,Nc1nc2sc3c(c2c(=O)s1)CCCC3,"inconclusive: 79.4 µM [inhibitor, partial curve]"
4,O=C(CSc1nnc(COc2ccccc2)n1Cc1ccco1)Nc1ccc2c(c1)OCCO2,"inconclusive: 50.1 µM [inhibitor, partial curve]"
5,Cc1cccc(N2C(=O)c3cccc4c(N5CCCCC5)c([N+](=O)[O-])cc(c34)C2=O)c1C,"inconclusive: 2.82 µM [inhibitor, partial curve]"
6,Cc1ccn2c(Nc3ccc4c(c3)OCO4)c(-c3ccc(N(C)C)cc3)nc2c1,"inconclusive: 10 µM [inhibitor, full curve]"
7,Cc1c(C(=O)N2CCCC2)oc2ccc(Br)cc12,inactive
8,O=C(/C=C/c1ccncc1)c1cc(Cl)ccc1O,active: 35.5 µM
9,CN(C)c1ccc(C(CNS(=O)(=O)c2ccc([N+](=O)[O-])cc2)N2CCOCC2)cc1 (stereo not drawn),"inconclusive: 44.7 µM [inhibitor, partial curve]"
10,O=C(NC1CCCCC1)C(c1ccccn1)N(C(=O)c1csnn1)C1CC1 (stereo not drawn),"inconclusive: 25.1 µM [inhibitor, partial curve]"
11,Cc1cc(C)nc(-n2nc(C)c(C3(O)C(=O)Nc4ccc(F)cc43)c2N)n1 (stereo not drawn),"inconclusive: 79.4 µM [inhibitor, partial curve]"
12,CCOC(=O)C1CCN(C(=O)COC(=O)CSc2ccc(C(N)=O)cc2[N+](=O)[O-])CC1,inactive
13,Clc1cccc(Cl)c1Cn1cnc(=NCc2ccco2)c2[nH]cnc21,"inconclusive: 79.4 µM [inhibitor, partial curve]"
14,S=C(c1ccc(-c2ccc(Cl)cc2Cl)o1)N1CCCCC1,"inconclusive: 44.7 µM [inhibitor, partial curve]"
15,CC(C)C(=O)N1c2ncnn2C2(CCCCC2)[C@@H]2CCCC[C@@H]21,inactive
16,O=C1C(=O)N(c2nccs2)C(c2ccccc2F)/C1=C(\O)c1ccc2c(c1)OCCO2 (stereo not drawn),"inconclusive: 89.1 µM [inhibitor, single point]"
17,COc1cccc(C2c3c(ncn(-c4ccccc4C)c3=N)Oc3ccc4ccccc4c32)c1 (stereo not drawn),"inconclusive: 35.5 µM [inhibitor, partial curve]"
18,COc1ccc(C(=O)N=c2nc3ccccn3s2)cc1,"inconclusive: 79.4 µM [inhibitor, single point]"
19,O=C(O)c1ccc(Cl)c(S(=O)(=O)Nc2ccc(S(=O)(=O)N3CCCC3)cc2)c1,inactive
20,O=C(NC(=S)NC1CCN(Cc2ccccc2)CC1)c1ccc(F)cc1,"inconclusive: 44.7 µM [inhibitor, partial curve]"
21,O=Cc1cn(CC(=O)N2CCCc3ccccc32)c2ccccc12,"inconclusive: 3.55 µM [inhibitor, partial curve]"
22,CCn1c(=O)c2c(O)cc(=O)oc2c2ccccc21,"inconclusive: 20 µM [inhibitor, single point]"
23,COc1cccc(C(=O)Nc2cc(=O)n(C)c(=O)n2C)c1OC,inactive

row,Compound,Potency
1,CCCNc1[nH]c(=O)n(C)c(=O)c1N=O,active: 50.1 µM
2,Cc1cc(C)nc(NC(=O)CSc2nn(-c3ccccc3)c(=S)s2)n1,"inconclusive: 89.1 µM [inhibitor, partial curve]"
3,CC(C)C[C@H](NC(=O)NC1CCCc2ccccc21)C(=O)O (stereo partly drawn),inactive
4,COc1ccc(CCN2CCCC(CN(C)C(=O)c3ccoc3C)C2)cc1 (stereo not drawn),inactive
5,CCCN(CCC)S(=O)(=O)c1ccc(NC(=O)Cc2cccs2)cc1,"inconclusive: 50.1 µM [inhibitor, partial curve]"
6,Cc1nccc(-c2cccc(N/N=C(\C#N)C(=O)c3ccccc3)c2)n1,"inconclusive: 79.4 µM [inhibitor, partial curve]"
7,N#CC1=C(N)N(c2ccccc2C#N)C2=C(C(=O)CCC2)C1c1ccsc1 (stereo not drawn),inactive
8,Cc1cccc2sc(N(CCCN(C)C)C(=O)c3ccc(Cl)s3)nc12,"inconclusive: 79.4 µM [inhibitor, partial curve]"
9,O=C(CSc1nnc(SCc2ccc(Cl)cc2)s1)N/N=C/c1c(Cl)cccc1Cl,inactive
10,c1ccc(C[C@H]2CNCCN2CCc2cccc3ccccc23)cc1,"inconclusive: 50.1 µM [inhibitor, partial curve]"
11,CCCCN(C)C/C(O)=C(\C#N)c1nc(-c2ccccc2)cs1,"inconclusive: 63.1 µM [inhibitor, partial curve]"
12,COc1cc(C2C(C(=O)OCC(C)C)=C(C)N=C3SCCC(=O)N32)ccc1OCc1ccccc1 (stereo not drawn),inactive
13,S=c1[nH]nc(COc2ccccc2)n1/N=C/C=C/c1ccccc1,"inconclusive: 25.1 µM [inhibitor, single point]"
14,O=C(/C(=N\Nc1ccc([N+](=O)[O-])cc1)Sc1nnnn1-c1ccccc1)c1ccccc1,"inconclusive: 17.8 µM [inhibitor, full curve, poor fit]"
15,Cc1oc(-c2cccs2)nc1CN1CC[C@@](O)(c2ccccc2)[C@H]2CCCC[C@@H]21,inactive
16,Cc1ccc(CNC(=O)c2cccnc2)cc1,inactive
17,Cc1nnc(Sc2cc(C(=O)NCc3ccco3)c3ccccc3n2)s1,"inconclusive: 56.2 µM [inhibitor, partial curve]"
18,O=C(c1ccccc1)c1c(-c2ccccc2)[nH]n(-c2ccccc2)c(=O)c1=O,"inconclusive: 14.1 µM [inhibitor, single point]"
19,O=C(NC(=S)NNC(=O)c1ccccc1O)c1ccc([N+](=O)[O-])cc1,"inconclusive: 89.1 µM [inhibitor, partial curve, poor fit]"
20,Cc1ccc(-c2nn(-c3ccccc3)cc2C(=O)NCCCN2CCCC2=O)cc1,"inconclusive: 22.4 µM [inhibitor, full curve, poor fit]"
21,CCn1c2ccccc2c2cc(CN3CCN(Cc4ccccc4Cl)CC3)ccc21,active: 7.08 µM
22,S=c1[nH]ncn1/N=C/c1ccc(N2CCOCC2)cc1,active: 2.82 µM

# Reference: PubChem BioAssay AID504339 (National Center for Advancing Translational Sciences (NCATS), 2011)
